Source: the RNAGym collection of RNA variant scans (doi:10.1073/pnas.2313332121)
Variants at the background level are over-represented here.

B1: TPR 5TU (parent)
chain: GGAUCUUCUCGAUCUAACAAAAAAGACAAAUCUGCCACAAAGCUUGAGAGCAUCUUCGGAUGCAGAGGCGGCAGCCUUCGGUGGCGCGAUAGCGCCAACGUUCUCAACUAUGACACGCAAAACGCGUGCUCCGUUGAAUGGAGUUUAUCAUG

Variants of: B1
Assay: polymerase ribozyme fitness, log enrichment relative to wild type (log ratio); higher = more active; in vitro selection for triplet polymerase activity
Summary of the method: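 Fitness is a logarithmic measure of how a genotype enriched relative to the wild type, with replicate averages weighted by inverse variance. The logarithm uses base 2, and enrichment came from Illumina sequencing of input and output libraries. Those libraries were PCR-built, transcribed mutants of each subunit of a heterodimeric triplet polymerase ribozyme, passed through one triplicate in vitro selection round that included frozen incubation at −7 °C, gel excision of extended constructs and streptavidin-bead capture. Genotypes were kept only if they had ≥10 input reads and ≥1 read per output.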

Variant	polymerase ribozyme fitness (log ratio)
C8G G25C U53G C63U C108A	≤ -4.2
C8A G92A C118G G133U G136A	≤ -4.2
C8U A19G G34C C85A	≤ -4.2
C8G G42C G50C A91C C93A	≤ -4.2
C8U A28U U53A G67A C69U G88C A89U A98G A138C	≤ -4.2
C8G G11U U31A U90G A137C A150U	-4.16
C8A U9C A30U C87U C95U C129A	≤ -4.2
C8G A22G U44A A52C A73C C125G	≤ -4.2
C8G U13A G50A G71A C95U U139A	≤ -4.2
C8A G50U G74C G80A C85U U139C G141C	≤ -4.2
C8A U77C G94U U135A U139C	≤ -4.2
C8G G46C C57U G59A G88U C96G A120U	≤ -4.2
C8G A21U G83A G140C	≤ -4.2
C8G C36U C114U A115G U135G A150C	≤ -4.2
C8A U55A A66C G67U U77A C99U C108U G133C G136A	≤ -4.2
C8U A22U G34C G68A C69U C87A	≤ -4.2
C8A U31G A37G G42A G83A	≤ -4.2
C8U G42C C72U G141U	≤ -4.2
C8G G25C U33C C72U U82G C99G U144A	≤ -4.2
C8G C18A A24G G67C U102C A107U A142U	≤ -4.2
C8U A21U A22U A37C C85G C93U G117C G136A G141U U145G G152A	≤ -4.2

Variant	polymerase ribozyme fitness (log ratio)
C8A G42A G59U G67C	≤ -4.2
C8G A21U C38U G59A G74A C95A	≤ -4.2
C8A G25U U31A U82C C118G U145C	≤ -4.2
C8U A39G G86U U102C U111G U144C G152A	≤ -4.2
C8U A21U G92A	≤ -4.2
C8U C27U A37C U55A C87G U111A C118G G124A	≤ -4.2
C8U A41G C103A	≤ -4.2
C8G C14U A26C U61A C69U G80A U145G	≤ -4.2
C8U A24G A29U U56G C69G C76A C85U U101G U109G U111G	≤ -4.2
C8A U56A C85U	≤ -4.2
C8A U31G A66U G92U G100C C118A G152A	≤ -4.2
C8A C54A G59U C93A G94A G117U G141U	≤ -4.2
C8U C57U A60C A97U A115U	≤ -4.2
C8A C32G A47U C54G G92U	≤ -4.2
C8G A29U G65A G81C C129U U135A U139G G143A	≤ -4.2
C8G A23U G83A G124C	≤ -4.2
C8U A26U A120G C125U	≤ -4.2
C8G U139G A150C	≤ -4.2
C8G G84U G100U C132U U144A	≤ -4.2
C8U A28G A47C C72G U82A G83A C85G	≤ -4.2
C8A U53A	-3.45

Variant	polymerase ribozyme fitness (log ratio)
C8A C54G C93G A97U U104G	≤ -4.2
C8U C79G G84A G94C G136C A138G A150G	≤ -4.2
C8G U13A U33G G71A G74A C87G C96A C105A	≤ -4.2
C8G C79U C85G	≤ -4.2
C8U C18U A47C C85U G86A U90A G136A U148G	≤ -4.2
C8A U9G A39C C103A	≤ -4.2
C8U C69U G70A G124A	≤ -4.2
C8A G58C A91U C96G	≤ -4.2
C8G C32G A66G C116A C123A	≤ -4.2
C8U C14A C27U A28C C57A G84U G140C	≤ -4.2
C8A G88A	≤ -4.2
C8U A52G A89U C93U G94A G100A U135G	≤ -4.2
C8U A22G A26U U56A G92U C116U	≤ -4.2
C8A C35A G59A A66U C87G G94A	≤ -4.2
C8A G34C U45A G50A U55A G74A A91G U102G G140C G141A	≤ -4.2
C8G A12G A41C U78C C87U G94A C99G	≤ -4.2
C8A U9A C85A C99G G136A	≤ -4.2
C8G G62C G70U C96A C103U	≤ -4.2
C8A C85G	≤ -4.2
C8A C85U	-2.6
C8U C85U A106U A142C	≤ -4.2

Variant	polymerase ribozyme fitness (log ratio)
C8U A107G	≤ -4.2
C8A U15C G50U C75U G86U	≤ -4.2
C8A C18G C75A A142C	≤ -4.2
C8U A22C G59A C75U G94A	≤ -4.2
C8A C87A	≤ -4.2
C8U A91U	≤ -4.2
C8G A52G A66C G84C C85A G126U	≤ -4.2
C8U C18A A20C A23C G62C A89G G136U	≤ -4.2
C8U A16C A66G C85G	≤ -4.2
C8G C18G C57G G83U C118U G128A	≤ -4.2
C8G G11U C32G	≤ -4.2
C8G U33C G50A G83A U144C	≤ -4.2
C8G A17U A52G G92A U130G C132G	≤ -4.2
C8G U44G G46A G84A U144A	≤ -4.2
C8G A20U U78C G83A A110G G136A U145C	≤ -4.2
C8U G25C U82A C87A	≤ -4.2
C8G A24C C38U G71C A91C	≤ -4.2
C8G U13C A17G C72U G81A C87A U90G C95U A122G	≤ -4.2
C8A C35U A73G C114G C118A	≤ -4.2
C8U C57U U61A G117A A121U U134C	-4.09
C8G A29G U31A G83C C93G	≤ -4.2
